Assay results from the supplement of paper PMC3334620.
Over roughly 33,000 sequences, “E-score (-0.5 to 0.5)” has its median near -0.01; the highest 2% begin near 0.26. The list shows a part of the results.

These sequences were tested against Ste12 (UniProt P13574) (assay: PBM E-score (8-mer binding enrichment) (E-score (-0.5 to 0.5)); higher = stronger / more preferred TF binding; most listed sequences are background and not binding sites). Settings: protein concentration: 200 nM; construct: GST-DNA-binding domain.
Method in brief: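 Using PURExpress in vitro transcription/translation, GST-tagged yeast transcription factors were made in full-length or DNA-binding-domain form. These were applied at about 100-200 nM to double-stranded universal all-10-mer Agilent arrays, and bound protein was detected with fluorescent anti-GST. Scans were normalised with masliner before the Universal PBM Analysis Suite assigned E-scores to ungapped eight-base words pooled with their reverse complements.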
In the case of CTGGATAA, the “PBM E-score” value is reported as 0.0623. ACTTATGA was tested, and the “PBM E-score” value was 0.0883. GCTTTTTA was tested, and the “PBM E-score” value was 0.271. ACGTGAGA was tested, and the “PBM E-score” value was -0.0631. AAAGGTCC was tested, and the “PBM E-score” value was -0.198. ACCTTGGA was tested, and the “PBM E-score” value was -0.197. AGAGAGTG was tested, and the “PBM E-score” value was -0.213. GTTCGATA was tested, and the “PBM E-score” value was 0.159. For TAAGTCGA, the “PBM E-score” value was -0.142. For ATCCGGGC, the “PBM E-score” value was -0.0865. With AATCCCCG the “PBM E-score” value was 0.00156. For AGGCCCCC, the “PBM E-score” value was -0.0988. In the case of AGGACGTG, the “PBM E-score” value is reported as -0.141. For GTTCTCGA, the “PBM E-score” value was 0.0691. For AATTAATT, the “PBM E-score” value was 0.254. In the case of CTAGTGTC, the “PBM E-score” value is reported as -0.0674. In the case of ACCACGCA, the “PBM E-score” value is reported as -0.0963. In the case of CATACGCC, the “PBM E-score” value is reported as 0.133. With AGTGACTC the “PBM E-score” value was 0.0699. In the case of AGTTCTAA, the “PBM E-score” value is reported as 0.00942. In the case of AAACCATC, the “PBM E-score” value is reported as 0.21. AACCGACG was tested, and the “PBM E-score” value was 0.0156. For CCCCAATA, the “PBM E-score” value was -0.0357. For GAGTTGGC, the “PBM E-score” value was 0.063. With CCGGAAGA the “PBM E-score” value was -0.00316. AGTAAGGC was tested, and the “PBM E-score” value was -0.0367. With ATGAAGTG the “PBM E-score” value was -0.076. For GTAACCGA, the “PBM E-score” value was 0.0926. With ATCAGTGC the “PBM E-score” value was -0.0897. In the case of CTGAGAGA, the “PBM E-score” value is reported as 0.0435. With GTAATTCA the “PBM E-score” value was 0.0809. In the case of GCCATGAC, the “PBM E-score” value is reported as -0.198. In the case of AAAAGCGT, the “PBM E-score” value is reported as 0.172. For AAGCTATC, the “PBM E-score” value was 0.00456. With ATGTACGA the “PBM E-score” value was 0.078. CAGGAACG was tested, and the “PBM E-score” value was -0.13. CGACAGGC was tested, and the “PBM E-score” value was -0.217. ACGGGTAG was tested, and the “PBM E-score” value was -0.147. For ACCTCCAG, the “PBM E-score” value was -0.121. With AGATAACT the “PBM E-score” value was -0.0232. ATTTGCCA was tested, and the “PBM E-score” value was -0.0114. CATATGCC was tested, and the “PBM E-score” value was -0.0307. With GCGGATCA the “PBM E-score” value was -0.0389. In the case of TCTCACCA, the “PBM E-score” value is reported as 0.109. GGAGCACA was tested, and the “PBM E-score” value was -0.0676. AGCGCTCC was tested, and the “PBM E-score” value was -0.0715. For ATGGTGTA, the “PBM E-score” value was 0.0284. In the case of GGTGCGTA, the “PBM E-score” value is reported as 0.0525. AAAATTTG was tested, and the “PBM E-score” value was 0.0212. AACACGCG was tested, and the “PBM E-score” value was -0.0168. With AGCGTAAA the “PBM E-score” value was 0.109. In the case of CAAAAATC, the “PBM E-score” value is reported as 0.123. In the case of ATGCTAAA, the “PBM E-score” value is reported as -0.0542. For CCACAGCA, the “PBM E-score” value was -0.124. ACCGCAAT was tested, and the “PBM E-score” value was 0.0783. CATCTTGC was tested, and the “PBM E-score” value was 0.0597. For AGAGACAC, the “PBM E-score” value was -0.233. With ACGTAAAT the “PBM E-score” value was -0.0316. For GCGAACCC, the “PBM E-score” value was -0.0433. With AGAAAACT the “PBM E-score” value was 0.0911. With ACGGACCC the “PBM E-score” value was -0.206. With AATGTCGT the “PBM E-score” value was -0.0149. In the case of GGCCGCAA, the “PBM E-score” value is reported as -0.00535. For CGAACGTA, the “PBM E-score” value was -0.126. In the case of CCATGTCC, the “PBM E-score” value is reported as -0.137. For CTGGGTCC, the “PBM E-score” value was -0.24. In the case of GCAGCACC, the “PBM E-score” value is reported as -0.0974. In the case of ACACTAAA, the “PBM E-score” value is reported as 0.232. For AGCGCGTC, the “PBM E-score” value was -0.0575. In the case of ACTTCCTA, the “PBM E-score” value is reported as -0.00834. CGTTAGAA was tested, and the “PBM E-score” value was 0.0681. With CTCTGTCC the “PBM E-score” value was -0.0996. In the case of CATCACGA, the “PBM E-score” value is reported as 0.00284. ATACATTC was tested, and the “PBM E-score” value was 0.0057. With CTAGGCAA the “PBM E-score” value was -0.0255. With GACTTGCC the “PBM E-score” value was -0.305. AATGACAG was tested, and the “PBM E-score” value was -0.0643. ACAAGAGA was tested, and the “PBM E-score” value was 0.0763. In the case of AATGACTC, the “PBM E-score” value is reported as -0.12. With GTAACTAA the “PBM E-score” value was 0.207. In the case of CGGGTGCA, the “PBM E-score” value is reported as 0.0453. With CAGTGGGC the “PBM E-score” value was -0.199. For CAATGGCC, the “PBM E-score” value was -0.23. With GACATCAC the “PBM E-score” value was -0.0278. In the case of CCCCTGCA, the “PBM E-score” value is reported as -0.23. For CGGTGCTA, the “PBM E-score” value was -0.00742. With CATCTAAC the “PBM E-score” value was 0.0284. In the case of CAAACGCA, the “PBM E-score” value is reported as -0.133. With CATTGGAG the “PBM E-score” value was -0.0248. In the case of CATATTGA, the “PBM E-score” value is reported as 0.144. With AGCCCGGA the “PBM E-score” value was -0.0966. With ATCGCACA the “PBM E-score” value was 0.0146. In the case of GCGCATGA, the “PBM E-score” value is reported as -0.0436. In the case of CATGCACA, the “PBM E-score” value is reported as 0.0615. For GGGACTTA, the “PBM E-score” value was 0.0129. For CTACGAAG, the “PBM E-score” value was -0.183. CAACCCTG was tested, and the “PBM E-score” value was 0.141. ACCTACGT was tested, and the “PBM E-score” value was -0.0687. For GGATTGTA, the “PBM E-score” value was -0.00568. In the case of ACGGCGCC, the “PBM E-score” value is reported as -0.0365. With CCTCTCGA the “PBM E-score” value was -0.0789. In the case of ATGCTCTG, the “PBM E-score” value is reported as -0.118. AGCATCCG was tested, and the “PBM E-score” value was -0.0876. With CAATGTTC the “PBM E-score” value was -0.0592. With AACGTGGG the “PBM E-score” value was -0.0675. With ACAGCGAG the “PBM E-score” value was -0.00798. For CCACGTGA, the “PBM E-score” value was 0.0289. TGATTTAA was tested, and the “PBM E-score” value was 0.266. With AAAGTCTC the “PBM E-score” value was -0.0993. In the case of GCAATTGC, the “PBM E-score” value is reported as 0.0356. AACCTTAA was tested, and the “PBM E-score” value was 0.21. With GGGGCTAA the “PBM E-score” value was -0.0575. With GGGTGCTA the “PBM E-score” value was -0.0769. In the case of ATATAGGC, the “PBM E-score” value is reported as 0.00416. With ACCGAAAA the “PBM E-score” value was 0.195. With CAACAAGC the “PBM E-score” value was 0.0511. With AGGGATTG the “PBM E-score” value was -0.13. With GCGCGGTA the “PBM E-score” value was 0.118. With ACACTACC the “PBM E-score” value was -0.182. TACCTCCA was tested, and the “PBM E-score” value was -0.0791. In the case of AGTGCTAA, the “PBM E-score” value is reported as -0.141. GTCAGCCA was tested, and the “PBM E-score” value was -0.203. For ACCGATCG, the “PBM E-score” value was -0.00536. With AGTCATAT the “PBM E-score” value was 0.211. For CGACAGGA, the “PBM E-score” value was 0.0149. With AAGCTTAG the “PBM E-score” value was 0.0097. TCTGAGCA was tested, and the “PBM E-score” value was -0.00914. With ACCCTATC the “PBM E-score” value was -0.0474. GAGACGTA was tested, and the “PBM E-score” value was 0.107. ATTTGGAG was tested, and the “PBM E-score” value was -0.0778. With ACATTAAA the “PBM E-score” value was 0.196. For CCTGTATA, the “PBM E-score” value was 0.0858. With CGTACTCC the “PBM E-score” value was -0.218. With CCTATTTC the “PBM E-score” value was 0.0874. With GAGGCTGC the “PBM E-score” value was 0.00926. In the case of CGAGCCCC, the “PBM E-score” value is reported as -0.121. In the case of GACTACCA, the “PBM E-score” value is reported as -0.2. For CCGGGTAA, the “PBM E-score” value was 0.0682. In the case of CACTCTGA, the “PBM E-score” value is reported as 0.0155. In the case of CAGTTCGA, the “PBM E-score” value is reported as -0.0542. In the case of ATTGTTGG, the “PBM E-score” value is reported as 0.19. With AGTGGGAA the “PBM E-score” value was 0.0403. With CTGTATCA the “PBM E-score” value was 0.207. For GAAGAATC, the “PBM E-score” value was -0.206. CGGTAGCC was tested, and the “PBM E-score” value was -0.107. In the case of CTGACTAA, the “PBM E-score” value is reported as -0.00263. In the case of GGGTATAA, the “PBM E-score” value is reported as 0.0292. CGATACCA was tested, and the “PBM E-score” value was 0.0193. In the case of ACATTCTA, the “PBM E-score” value is reported as -0.225. In the case of AACCGTGC, the “PBM E-score” value is reported as -0.0463. CCAATAGA was tested, and the “PBM E-score” value was -0.00619. In the case of AACGTGCA, the “PBM E-score” value is reported as -0.11. In the case of GATAGCCC, the “PBM E-score” value is reported as -0.21. With CCGGCGTA the “PBM E-score” value was -0.0476. With GATTTTTA the “PBM E-score” value was 0.226. CCTTCGAG was tested, and the “PBM E-score” value was -0.201. For CATCTGGA, the “PBM E-score” value was 0.0218. In the case of AGCTGACT, the “PBM E-score” value is reported as -0.106. In the case of CTGTAGTA, the “PBM E-score” value is reported as 0.186. In the case of CTGCGAAA, the “PBM E-score” value is reported as -0.0417. CGATCACC was tested, and the “PBM E-score” value was 0.143. With ACGACTCT the “PBM E-score” value was -0.242. GTTCATCA was tested, and the “PBM E-score” value was 0.0345. With CTGATATA the “PBM E-score” value was 0.0238. For GCAGATAC, the “PBM E-score” value was -0.0796. In the case of AGCACTAG, the “PBM E-score” value is reported as -0.0945. CCCGATCG was tested, and the “PBM E-score” value was -0.0225. ATCTGCGA was tested, and the “PBM E-score” value was -0.0393. With GACCGATA the “PBM E-score” value was -0.00126. For ATGGAGTC, the “PBM E-score” value was -0.0356. For GAACTGCC, the “PBM E-score” value was -0.0805. For GAAGATAA, the “PBM E-score” value was -0.0185.
